Assay results from PubChem BioAssay AID743255 (National Center for Advancing Translational Sciences (NCATS), 2014).
Hit rate of the full screen: of about 390,000 compounds, about 910 (0.23%) were called active. About 5% were inconclusive and are not listed. The call rests on the fitted dose curve; in most records, active means well fitted inhibition curve with a large enough effect; inconclusive means small, poorly fitted or top-dose-only effect; inactive means no such curve, though single readings can be large or run the other way. The list shows a part of the results, in another mix than the full data.

biological target: Ubiquitin carboxyl-terminal hydrolase 1 (Homo sapiens) (UniProt O94782); experiment: Inhibitors of USP1/UAF1: Primary Screen; details: recombinant USP1/UAF1, Ub-Rhodamine cleavage fluorescence; activity change, negative = inhibition: at 57.1 µM (top of the series); further: nearly all actives have a fitted effect of over 60% in size
Chain of UniProt O94782 (O94782 whole entry, looked up): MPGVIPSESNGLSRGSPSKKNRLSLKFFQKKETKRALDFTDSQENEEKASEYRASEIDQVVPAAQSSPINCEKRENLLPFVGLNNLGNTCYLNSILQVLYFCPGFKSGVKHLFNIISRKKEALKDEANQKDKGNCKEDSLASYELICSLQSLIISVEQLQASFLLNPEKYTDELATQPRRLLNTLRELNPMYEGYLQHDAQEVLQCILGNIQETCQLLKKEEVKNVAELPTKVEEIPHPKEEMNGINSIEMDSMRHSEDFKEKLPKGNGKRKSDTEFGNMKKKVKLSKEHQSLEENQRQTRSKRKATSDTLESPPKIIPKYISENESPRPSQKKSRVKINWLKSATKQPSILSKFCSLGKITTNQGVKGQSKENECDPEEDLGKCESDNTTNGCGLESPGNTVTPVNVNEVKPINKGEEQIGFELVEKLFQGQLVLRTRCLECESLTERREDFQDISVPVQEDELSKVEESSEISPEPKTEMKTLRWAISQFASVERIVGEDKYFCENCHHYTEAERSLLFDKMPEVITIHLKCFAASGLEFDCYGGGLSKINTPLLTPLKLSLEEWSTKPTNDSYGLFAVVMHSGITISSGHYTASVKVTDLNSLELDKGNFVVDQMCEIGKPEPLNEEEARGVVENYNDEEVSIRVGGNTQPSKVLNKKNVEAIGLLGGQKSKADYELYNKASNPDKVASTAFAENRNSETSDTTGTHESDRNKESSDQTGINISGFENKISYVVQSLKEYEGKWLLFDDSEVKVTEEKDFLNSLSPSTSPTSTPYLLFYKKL
In short: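 USP1/UAF1 complex (1 nM) preincubated 15 min at room temperature with compound, then Ub-Rho substrate (150 nM final) added. Kinetic fluorescence at 480/540 nm over 6 reads at 60 s intervals; 50 mM HEPES pH 7.8, 0.5 mM EDTA, 0.1 mg/ml BSA, 1 mM TCEP, 0.01% Tween-20.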
On the % scale 0 is the no-effect control and ±100 the full control effect; potency means the concentration at half of the fitted maximal effect.

Activity change, negative = inhibition, inactive:
Cc1cccc(S(=O)(=O)N(C)C[C@H]2OCc3cnnn3CCCC(=O)N([C@H](C)CO)C[C@H]2C)c1 0.268%
Cc1ccc(NC(=O)CN(C)S(=O)(=O)c2cccc3cccnc23)cc1F -11.2%
OCC[C@H]1C[C@H](O)[C@@H](O)[C@@]2(CCCO2)O1 -2.54%
O=C(C[C@@H]1C/C=C/CC[C@H](Cc2ccc(F)cc2)C(=O)O[C@H](c2ccccc2)CNC1=O)NCCO 26%
C[C@H](CO)N1C[C@H](C)[C@H](CN(C)C(=O)Nc2cccc3ccccc23)OCc2cnnn2CCCC1=O -6.41%
CCc1ccc(C2CC(=O)Nc3c2c(=O)nc2c(C)cccn32)cc1 (stereo not given) -11.1%
CCCc1cc(-n2ccnc2)n2c(nc3ccccc32)c1C#N 162%
C=CCOC(=O)C1=C[C@H](c2ccc(C(F)(F)F)cc2)[C@@H](CCCO)[C@H](OCC)O1 -25.4%
O=C1NCCOC(=O)[C@@H](Cc2ccc(F)cc2)C/C=C\C[C@@H]1CC(=O)N(CCO)Cc1ccccc1 -13.1%
C[C@H]1CN([C@@H](C)CO)C(=O)c2cc(Br)cnc2O[C@@H]1CN(C)S(=O)(=O)c1ccccc1 -20.1%
C[C@@H]1CN([C@H](C)CO)C(=O)CCCn2nncc2CO[C@H]1CN(C)C(=O)NC1CCCCC1 -22.3%
COc1ccc(OC)c(/C=C(\C#N)c2nc3ccccc3c(=O)[nH]2)c1 147%
C[C@H]1CN([C@@H](C)CO)C(=O)CCCn2cc(nn2)CO[C@@H]1CN(C)S(=O)(=O)c1ccc2c(c1)OCCCO2 -7.54%
O=C(CSc1nc2c([nH]c3ccccc32)c(=O)n1-c1ccccc1)N1CCOCC1 -14.8%
CCCCN(C)CC(O)Cn1cc(/C=C/C(=O)c2ccc(C)cc2)c2ccccc21 (stereo not given) -21.7%
CC(C)c1ccc(NC(=O)CCS(=O)(=O)c2cccc3nonc23)cc1 -8.7%
O=C1c2ccccc2-c2onc3ccc(NCc4ccco4)c1c23 43.5%
CCc1ccc(NC(=O)CCS(=O)(=O)c2ccc3c(c2)n(C)c(=O)c(=O)n3C)cc1 44.3%
CN(C(=O)CSc1cn(CC(=O)N2CCOCC2)c2ccccc12)c1ccccc1 -25.2%
CCCCN(CC)CCNC(=O)Cn1cc2c(n1)-c1c(oc(C(=O)N3CCCC3)c1C)CC2 -26.8%
CCc1cccc(-n2nnc(-c3nc(-c4ccccc4Cl)no3)c2N)c1 32.3%
O=C1N[C@@H](Cc2ccccc2)COC(=O)[C@@H](Cc2ccc(F)cc2)CC/C=C/C[C@@H]1CC(=O)N(CCO)Cc1ccccc1 -22.9%
C=CC[C@H](CC(=O)NCCO)C(=O)N[C@H](COC(=O)[C@H](CC=C)CC(=O)OC(C)(C)C)Cc1c[nH]c2ccccc12 -9.68%
Cc1ccc(-c2ccc(CCC(=O)O)n2-c2cccc(O)c2)cc1 -21.3%
C[C@@H]1CN([C@H](C)CO)C(=O)CCCn2cc(nn2)CO[C@H]1CN(C)C(=O)c1cc(-c2ccccc2)on1 8.81%
C[C@H](CO)N1C[C@H](C)[C@@H](CN(C)S(=O)(=O)c2ccccc2)Oc2ccc(NC(=O)Nc3ccc(C(F)(F)F)cc3)cc2C1=O -26.8%
COCCCn1c(=O)/c(=C\c2ccccc2OC(C)C)s/c1=C(/C#N)C(=O)Nc1ccc(C(=O)O)cc1 -13.5%
O=C(c1ccc2c(c1)CCN2S(=O)(=O)c1ccccc1)N1CCN(c2ccc(F)cc2)CC1 -17%
CC[C@]1(c2ccccc2OC)C(=O)N(C(=O)OC)N1C(=O)OC -20.7%
Cc1cccc(S(=O)(=O)N(C)C[C@H]2OCc3cnnn3CCCC(=O)N([C@@H](C)CO)C[C@H]2C)c1 -12.9%
CCc1nn(CC(=O)N2CCN(c3cc(C)ccc3C)CC2)c(=O)c2cc3occc3n12 -0.668%
COC(C/C=C\[C@@H](O)COCc1ccccc1)OC 7.75%
C[C@@H]1CN([C@@H](C)CO)C(=O)CCCn2cc(nn2)CO[C@H]1CN(C)S(=O)(=O)c1ccc(-n2cccn2)cc1 -6.8%
Cc1ccc(OC(=O)N(C)C[C@H]2OCc3cn(nn3)CCCC(=O)N([C@H](C)CO)C[C@@H]2C)cc1 -14.2%
Cc1cccc(N(C)C(=O)c2cc(S(=O)(=O)N3CCCCC3)c[nH]2)c1 -13.3%
CCCCN(C)CCCNC(=O)CN1C(=O)CSc2ccc(S(=O)(=O)N3CCOCC3)cc21 -2.87%
C=CC[C@@H](CC(=O)N[C@@H](CO)Cc1ccccc1)C(=O)N[C@H](COC(=O)[C@@H](CC=C)CC(=O)OC(C)(C)C)Cc1c[nH]c2ccccc12 -13.7%
O=C(NCc1ccccc1)C1=C[C@H](c2ccc(Br)cc2)C[C@H](OCCCCO)O1 -7.43%
COc1ccc(C(=O)Nc2ccc3nc(N4CCCCC4)cc(C)c3c2)cc1OC -16.3%
C=C1C[C@H](O[C@@H]2O[C@H](CO)[C@@H](O)[C@H](O)[C@H]2O)[C@@H]2[C@H](OC(=O)[C@H]2C)[C@H]2[C@H](C)[C@@H](O)C[C@@H]12 -24.1%
CCCCCn1c(=O)[nH]c2cc(C(=O)N3CCN(c4ccccc4F)CC3)ccc2c1=O -23.1%
C[C@H]1COC(=O)[C@H](CC(=O)OC(C)(C)C)C/C=C\C[C@H](CC(=O)N(CCO)Cc2ccccc2)C(=O)N1 -25.3%
CCOC(=O)N(C)C[C@H]1OCc2cnnn2CCCC(=O)N([C@H](C)CO)C[C@H]1C -27.1%
CCOC(=O)[C@@H]1[C@H]2COc3ccccc3[C@@H]2N2C(=O)N(c3ccccc3)C(=O)[C@@]12C 7.34%
CCO[C@@H]1OC(C(=O)Nc2ccccc2)=C[C@H](c2ccc(Br)cc2)[C@H]1CCCO -23.5%
C=CC[C@H](CC(=O)N(CCO)Cc1ccccc1)C(=O)N[C@@H](COC(=O)[C@@H](CC=C)Cc1ccc(F)cc1)Cc1ccccc1 -22.4%
O=C(NCc1ccccc1)C1=C[C@H](c2ccc3c(c2)OCO3)C[C@H](OCc2ccc(CO)cc2)O1 -17.2%
CCCNC(=O)Cn1c(=O)/c(=C\c2ccc(-c3cccc([N+](=O)[O-])c3)o2)s/c1=C\C(=O)C(C)(C)C 32.3%
CC(C)(C)OC(=O)C[C@@H]1C/C=C\C[C@@H](CC(=O)N[C@H](CO)Cc2ccccc2)C(=O)N2CCC[C@@H]2COC1=O -27.4%
Cn1ncc2c(N3CCN(c4cccc(Cl)c4)CC3)ncnc21 28.4%
COc1cccc(N2CCN(S(=O)(=O)c3ccc(-n4cnnn4)cc3)CC2)c1 -9.81%
NC(=O)CSc1oc(-c2ccco2)nc1S(=O)(=O)c1ccc(Cl)cc1 -23.2%
CCn1c(/C=C/c2ccc([N+](=O)[O-])o2)nc2ccccc2c1=O 119%
O[C@@H]1CN(Cc2cccs2)[C@@H](c2ccccc2)C[C@H]1n1cc(-c2ccc(F)cc2)nn1 -10.8%
COCCCn1c(=N)c(C(=O)NC2CCCCC2)cc2c(=O)n3ccccc3nc21 -6.16%
O=C1NC[C@H](c2ccccc2)OC(=O)[C@H](Cc2ccc(F)cc2)C/C=C\C[C@H]1CC(=O)N(CCO)Cc1ccccc1 -27.7%
O=C(N/C(=C/c1ccc(Br)cc1)C(=O)N1CCCC1)c1ccccc1F -4.52%
Cc1ccc2oc(=O)c(-c3nc(-c4cccs4)no3)cc2c1 4.82%
COC(C[C@@H]1O[C@@H]1[C@H](O)COCc1ccccc1)OC -19.9%
CC(Cc1cccc(C(F)(F)F)c1)NCCOC(=O)c1ccccc1 (stereo not given) -24.2%
CCN(CC)c1ccc(/C=c2\sc3nnc(-c4ccccc4Cl)n3c2=O)cc1 54.5%
CCOC(=O)[C@@H]1[C@H]2COc3ccc(Br)cc3[C@@H]2N2C(=O)N(c3ccc(C(F)(F)F)cc3)C(=O)[C@]12C -16%
CCC(C)Sc1ccc([C@@H]2[C@@H]3C(=O)N(CC)C(=O)[C@@H]3[C@]3(C(=O)OC)CCCCN23)cc1 (stereo not given in full) 2.04%
OC(COc1ccc(CN2CCCCO2)cc1)CN1CCCCC1 (stereo not given) 1.08%
N#CC(C(=O)OC1CCCCC1)c1nc2ccccc2nc1N1CCOCC1 (stereo not given) 122%
FC(F)(F)c1ccccc1C1=CC(c2ccccc2)n2ncnc2N1 (stereo not given) 25.9%
O=C1CCC/C(=N/NC(=O)c2sc3ccccc3c2Cl)C1 35.1%

Potency, active:
CCN1CCc2c(sc(NC(=O)c3ccc(S(=O)(=O)N(CC)c4ccccc4)cc3)c2C(N)=O)C1 28.2 µM
NC1=CC(=O)C(=O)c2cccnc21 3.55 µM
N#Cc1c(-c2ccccc2)nc(SCC(=O)N2c3ccccc3Sc3ccccc32)[nH]c1=O 31.6 µM
C=CCN1C(=O)/C(=C/c2ccc(OC(C)=O)c(OCC)c2[N+](=O)[O-])SC1=S 14.1 µM
N#C/C(=C\c1coc2ccc(O)cc2c1=O)C(=O)Nc1nc2ccccc2s1 25.1 µM
O=C(O)c1ccc2c(c1)[C@@H]1C=CC[C@@H]1[C@H](c1ccccn1)N2 31.6 µM
CCOc1cccc(CNc2ccc(O)cc2)c1OCc1ccc(Cl)cc1Cl 31.6 µM
Cc1ccc(C)n1Cc1ccc(C(=O)O)cc1 25.1 µM
Cn1cccc1/C=C1\CCC/C(=C\c2cccn2C)C1=O 22.4 µM
CCOC(=O)c1c(C)sc(-c2c(-c3cc(C)ccc3C)[nH]c3c2c(=O)n(C)c(=O)n3C)c1O 28.2 µM
CCOc1ccc(NC(=S)Nc2ccc3nsnc3c2)cc1 28.2 µM
CCNc1ccc(Br)cc(C(=O)/C=C/c2ccccc2Cl)c1=O 28.2 µM
CCCc1nc2c(=O)n(C)c(=O)nc-2n(C)n1 0.1 µM
COc1ccc(NC2=C(NCCO)C(=O)c3ccccc3C2=O)cc1 25.1 µM
C=CCn1c(NC(=O)c2ccccc2Cl)c(C#N)c2nc3ccccc3nc21 15.8 µM
O=C(CSc1nc2cc(Cl)ccc2s1)c1cc2ccccc2o1 28.2 µM
CCN(CC)c1ccc(/C=C(/C#N)C(=O)NCc2ccccc2)o1 31.6 µM

Potency, inactive:
COCCCC/C(=N\OCCN)c1ccc(C(F)(F)F)cc1
